# Laboratory results published in PMC12136788.
# Some of the results follow.
# T1: UNK ZnF1-3 (human, UniProt Q9C0B0 31-174)
# T1 sequence: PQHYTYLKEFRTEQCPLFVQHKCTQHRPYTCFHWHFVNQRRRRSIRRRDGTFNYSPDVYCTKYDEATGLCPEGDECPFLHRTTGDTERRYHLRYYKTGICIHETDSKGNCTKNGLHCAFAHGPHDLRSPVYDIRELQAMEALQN
# B1: chr2:232319755:232319756:-_ENSG00000115053_ENST00000322723|hu_hu|motif|central (ssRNA)
# RNA: GGGAGUUCUACAGUCCGACGAUCAAAAGUUUAUAUGAAUAUCCAGUCAAAACCAACACGGUAUUGCCCUUGAAAUGUUAACGGGACGGAUUUCCAAGGAGACCACAGGACUGUAUACUGUCUUGGAAUGUCCUCAGAAGGCUCCAACAGAGGAUUGAGCAUCA
# B2: chr11:51934471:51934472:+_ENSMUSG00000020349_ENSMUST00000020608|perfect_dup|FALSE|FALSE (ssRNA)
# RNA: GGGAGUUCUACAGUCCGACGAUCGAUUGCAGCUUGGUUACCACAACGAUAACAAUAGUUUGGAGCACUGAAAAUCGUUACUACAUUCCGGUCAUGGCACCAGUUAUAUCCCUCCAUCACUAGCUGGUGAGCUCUAGACACCAACAACAGAGGAUUGAGCAUCA
# B3: 44259387_44259507_406_5pUTR_ENSMUSG00000038736_ENSMUST00000038719|mouse|control|control (ssRNA)
# RNA: GGGAGUUCUACAGUCCGACGAUCUGGAACUGAGGCUGGGAAACGGCGUGGUUCCCAUCCCAGACGACUCUGCGGCGCCACGUCUCUUCUGGGAAGUGUAGUGUCCAUGAGAAAUUUGGUUCUGUUGCAAUGCUGGGAAAUGUACAACAGAGGAUUGAGCAUCA
# B4: 21789168_21789288_861_3pUTR_ENSMUSG00000028248_ENSMUST00000108229|mouse|control|control (ssRNA)
# RNA: GGGAGUUCUACAGUCCGACGAUCUCCUUCCGCAUCUUCAGUGGCCUUCUUUUCUUUUUUUGACAACUGUGAACGCUGCUGUUCCAUUCUCUCUUUCUCUAACUUCUUCUGCUUUUCACGUUCCAUCUUCUCAAGGCCUUCACGCAACAGAGGAUUGAGCAUCA
# B5: chr8:74746221:74746222:+_ENSMUSG00000003039_ENSMUST00000003123|mus_mus|motif|central (ssRNA)
# RNA: GGGAGUUCUACAGUCCGACGAUCUUUAAUCAAGUCUCAGAAAACCUGGUCUCAGCAGAUUCACCAGCCAGGUGUAAAACAUUCGGGAAAACACGGAGGGACAAGACAAAACACUGUCAACCUGGCCUUCUGCCUUUUUGCACCCAACAGAGGAUUGAGCAUCA
# B6: chr1:39494564:39494565:+_ENSG00000168653_ENST00000372967|hu_hu|hu_hu_hu_mus_True|18_18 (ssRNA)
# RNA: GGGAGUUCUACAGUCCGACGAUCAUGCAUUCGCCUCAUCGUUUUGUACCGAAGCAAGCACUCUUCGAAGUCAUCGAACUCUAUCUUGCACUCCUUUUUCGCCCGGGUCCCACCGAUUCCAUGUGCACACUCUAUCCACUCUUUCAACAGAGGAUUGAGCAUCA
# B7: 83150293_83152864_1523_3pUTR_ENSMUSG00000035152_ENSMUST00000018875|mouse|control|control (ssRNA)
# RNA: GGGAGUUCUACAGUCCGACGAUCUUGGUCUGGAUUAGAUCAAGCAGUGUGCUUACACAGCGUUCUGCUGAUUGCUCCACUUUGAUGGCACACCGUCCAAUGGCCCUCACAGCUUUGCGAACAAAGUCCACAUCAACUUCAGUGCAACAGAGGAUUGAGCAUCA
# B8: chr2:176857141:176857142:-_ENSG00000144320_ENST00000272748|hu_mus|FALSE|FALSE (ssRNA)
# RNA: GGGAGUUCUACAGUCCGACGAUCUUUUUGCAAUCUCUGAUUUUUUUCUCUAAAUUCUUCCAAUGCUUGAAUUUCCUUAUCUAUAUUUUCUAGAACUUCUACUGUUGAAGGUUUUGCCCUCCAUCGAGAAAAUAAUCCACCCAUCAACAGAGGAUUGAGCAUCA
# B9: chr14:102368134:102368135:+_ENSG00000078304_ENST00000445439|hu_hu|hu_hu_hu_mus_True|78_88 (ssRNA)
# RNA: GGGAGUUCUACAGUCCGACGAUCAAGAGGCUCCAUGAUCUUCACAAAUUCUGAUGGUUCAAUGACAUCUAAAAUUUCUUCUAAUUCAUUUAAGAACAUUACUUCUUUUGGACUGUGAGUCUUUGGCCAGUAUUUGAGAAGUGCCAACAGAGGAUUGAGCAUCA
# B10: chr2:75765252:75765253:+_ENSMUSG00000042410_ENSMUST00000047232|mus_mus|motif|central (ssRNA)
# RNA: GGGAGUUCUACAGUCCGACGAUCAUUUAAAGCAAUUGUUCCACGUAUUUCAAUAUCCAGUUUUGAAUGUAAAAAUGUCUGCGGAAUGUAAUUAACGUUCUCCUUUUUAUUUAAGAAAUAGGAUAUUUCAAACUUGUGAUUAUGCAACAGAGGAUUGAGCAUCA
# B11: chr1:182620099:182620100:+_ENSMUSG00000058729_ENSMUST00000085803|mus_hu|FALSE|FALSE (ssRNA)
# RNA: GGGAGUUCUACAGUCCGACGAUCCAAAGGUUUCUUUUAUAUGUUAUGAUAAAUUAAAAUAUUUAUUAUUAUAAAAUGAUCUACAGAACCAUGUCACAUUGCAAGUAUAUAUAACAUAUACUUGUAAAGUCCACAUUUCCCAUCCAACAGAGGAUUGAGCAUCA
# B12: chr6:114274515:114274516:-_ENSG00000196591_ENST00000368632|hu_mus|FALSE|FALSE (ssRNA)
# RNA: GGGAGUUCUACAGUCCGACGAUCCAUCACGCGAUCUGUUGUAUAAAAAGCUUCCUCAACACCAUCACCAUGGUGGAUGUCUAUGUCAAUAUAUAAGACUCUCUGAUGAUACUUAAGUAAUUCGAGGAUGGCAAGCACAAUAUCCAACAGAGGAUUGAGCAUCA
# B13: chr1:117910967:117910968:+_ENSG00000198162_ENST00000356554|hu_hu|FALSE|FALSE (ssRNA)
# RNA: GGGAGUUCUACAGUCCGACGAUCUUUUGAAGAGUCUGGAAGGAAAAAGAAUGCCCCAAAACACAGAGUGAUGAAGGCACUAAGAAUAAGGAGAAGAAUAAACUUCUCAGAAAGUCUCAAGGUAGCCCUGUGAUGUGGGAAGGACAACAGAGGAUUGAGCAUCA
# B14: chr8:95500983:95500984:-_ENSG00000164944_ENST00000437199|hu_hu|hu_hu_hu_mus_True|38_88 (ssRNA)
# RNA: GGGAGUUCUACAGUCCGACGAUCAGAACACAUCUAUCGAGUAAAGGGAGCGUACAUACGGCCUCUACCACUGCCUCCACUAACAAACUUUCCUCUCUGAGCCUCCAUGCCGCUAUUUGUACUAGCCCAGGACGGUCCCAGGCCCAACAGAGGAUUGAGCAUCA
# B15: chr3:47719781:47719782:-_ENSG00000173473_ENST00000254480|hu_mus|FALSE|FALSE (ssRNA)
# RNA: GGGAGUUCUACAGUCCGACGAUCAUGAACCCUCAUCACAGCACACACAUCUCCAGUCAGGUUUCGCCGGCAAGCAGUGCUGGUUAAAUAUUCUUGAGGGUUUAGACGGUAUGUGUCAAUCAUAAAAUUUCGAUAUGCCAAGUACAACAGAGGAUUGAGCAUCA
# B16: chr6:13622506:13622507:-_ENSG00000010017_ENST00000011619|hu_hu|motif|central (ssRNA)
# RNA: GGGAGUUCUACAGUCCGACGAUCCUAGGAAGCAAUGUAAAGCGACAAAAACCUGUCCCCAGUACAUAAUUUAAAAAAUCGGAAUUUCAAAUCAGCAGAGCUGGUCUACUUCCAUGUUGACUAUAUGCCACAAUAUAAGUGUGACAACAGAGGAUUGAGCAUCA
# B17: chr5:65459698:65459699:+_ENSG00000153914_ENST00000334121|hu_mus|motif|central (ssRNA)
# RNA: GGGAGUUCUACAGUCCGACGAUCCAUUACUUCUUCUAACUCCUUAGCUGCAGCCUGAGGUGUCAUCUCAGGAGGUUUUACGGUUGCAUUGUUGGAGUGAUUUAUUUUCAGUGGCCUGUCUCCAAACAUAACUCCAUUAAAAGCCAACAGAGGAUUGAGCAUCA
# B18: chr6:30690706:30690707:+_ENSG00000196230_ENST00000327892|hu_hu|FALSE|FALSE (ssRNA)
# RNA: GGGAGUUCUACAGUCCGACGAUCUGAGCGAACAGAGUCCAUGGUCCCAGGUUCUAGAUCCACCAGGAUGGCACGAGGAACAUAUUUGCCACCUGUGGCUUCAUUGUAGUACACAGAGAUGCGGUCCAGCUGCAGGUCGCUGUCCAACAGAGGAUUGAGCAUCA
# B19: chr6:29325759:29325760:+_ENSMUSG00000029767_ENSMUST00000031779|mus_hu|FALSE|FALSE (ssRNA)
# RNA: GGGAGUUCUACAGUCCGACGAUCAGGCAGGAAAGGUAAGCCAUGGUCCUCAAACCAAAGAGCCCUCUCUGUAGGUCCUCUGAUCUUUGAGUGUGAGCUCAAGCUCUCCAGUGGACACAGAAAAAGGCCUGGUAGUAAGUGGUUCAACAGAGGAUUGAGCAUCA
# B20: chr2:9570881:9570882:+_ENSG00000119203_ENST00000238112|hu_mus|hu_hu_hu_mus_False|48_108 (ssRNA)
# RNA: GGGAGUUCUACAGUCCGACGAUCACUUGUCUUCUGUAGGAACCAGGGCAGGGCUCCACAGUGAUCCAAAUGGAAAUGACUGAUCAAUAGGAGAUCAAUCUCAGCUGGGUCGAUAAGGUCAAUGUAAGGAAGGGCAUCCAUUCCCAACAGAGGAUUGAGCAUCA
# B21: chr16:94651144:94651145:+_ENSMUSG00000040785_ENSMUST00000117648|mus_hu|mus_mus_mus_hu_True|18_48 (ssRNA)
# RNA: GGGAGUUCUACAGUCCGACGAUCAUUUUCUUGAAUCAAGUGGCGAAUAACAUAGUCCACUGCUUCAUUUAGAAAAUUUCUGCUAGAAAAGCAUGUUGUAUAGUCUUCUGUGCUCAAAACCUUCCAAGAAAGCAAUUCUUUGAGCAACAGAGGAUUGAGCAUCA
# B22: chr13:13598695:13598696:+_ENSMUSG00000005397_ENSMUST00000005532|mus_hu|motif|central (ssRNA)
# RNA: GGGAGUUCUACAGUCCGACGAUCCACCAAGUCAGUCUCAAAGAGCACCCGGCGCUGCGUGCCGUCCAGCUUCGCCACUUCGGUUCGAUCCAGGUUAGAGUCUGUCCAGAAGAUGUUGCGGCCAAGGUGAUCAACAGCGAUACCCAACAGAGGAUUGAGCAUCA
# Molecular target: T1, UNK ZnF1-3
# Experiment: nsRBNS (natural sequence RNA bind-n-seq); RBNS binding buffer (assumed for nsRBNS): 25 mM Tris pH 7.5, 150 mM KCl, 3 mM MgCl2, 0.01% Triton X-100, 500 ug/ml BSA, 20 U/ml SUPERase-In, 4 C; UNK is unkempt and MSI1 is Musashi-1; names of the RNAs are library labels; protein concentration not given here; high values mean tight binding
row,Binder,binding signal [enrichment R]
1,B1,0.847
2,B2,1.24
3,B3,0.725
4,B4,0.36
5,B5,1.16
6,B6,0.657
7,B7,0.378
8,B8,0.461
9,B9,0.645
10,B10,0.27
11,B11,1.71
12,B12,1.81
13,B13,2.76
14,B14,1.6
15,B15,1.04
16,B16,1.46
17,B17,0.814
18,B18,0.799
19,B19,0.773
20,B20,0.839
21,B21,0.47
22,B22,1.35
